B1: LINE1-mini (parent)
chain: GGCAGAGCUCAACACAGCGUGGCAAAGUGGCUGUGGCUAGACUGCC

Read counts are not given, so values of variants with three or more changes are uncertain.

The series covers variants of B1. Briefly: self-cleavage, relative activity (ratio to wild type); higher = more cleavage; in vitro, sequencing; the parent is a self-cleaving ribozyme.
Turning to GUCAGAGCUCGACACAGCGUGGCAAAGCGGCUGUGGCUAGACUGCC [G2U A11G U28C], the self-cleavage was found to be 0.01.

Consider GGCAGCGCUCAACUCAGCGCGGCAAACUGGAUGUGUCUAGACUGCC [A6C A14U U20C G27C C31A G36U], for which the self-cleavage was found to be 0.05.

For GGCAGAGCUCAUCAGAGCGUGGCAAAGUGGCUGUGGCUAGACUGCU [A12U C15G C46U], the self-cleavage amounted to 0.02.

GGCAGAGCUCAACACAGCGUGGCAAAGUGGCUGUAACUAGACUGCU [G35A G36A C46U]: the self-cleavage stood at 0.12.

With GGCAGAGCUAAACACAGCGUGGCAAAGUGGCUGUGACUAGACUGCA [C10A G36A C46A], the self-cleavage worked out at 0.02.

On to GGCAGAGCUCAAUACAGCGUGGCAAAGUGGCUGGGGAUAGACUGCU [C13U U34G C37A C46U], for which the self-cleavage turned out to be 0.02.

For GGCAGAGCUCAACUCAGCGUGGCAAAGUGGCUGUUGCUAGCCUGCC [A14U G35U A41C], the self-cleavage came to 0.13.

Take GGCAGAGCUCAACACAGUGUGGCAAAGUGGCUGUGUCUAGACUUCC [C18U G36U G44U]: the self-cleavage was found to be 0.02.

In the case of GGCAGAGCUCAACACAGCGUGGCAAAGUGGCUUUGGAUUGACAACC [G33U C37A A39U U43A G44A], the self-cleavage turned out to be 0.03.

With GGCAGAGCUCAACAGAGCGUGGCAAAGUGGCUGUGUCUAGACUGCA [C15G G36U C46A], the self-cleavage turned out to be 0.02.

In the case of GGCAGAGCUCAACAUAGGGUGGCAAAGUGGCUGUGGCUUGACUGCC [C15U C18G A39U], the self-cleavage was found to be 0.11.

Take GGCAGAGCUCCACACAGCGUGGCAUAGUGGGUGUGGCUAGACUGCC [A11C A25U C31G]: the self-cleavage amounted to 0.

On to GGCUGAGCUCAAUACAGCGUGGCGAAGUGGCUGUGCCUAGACUGCC [A4U C13U A24G G36C], for which the self-cleavage was 0.12.

With GGCAGAGCUCAACAUAGCUUGCCAAAGUGGCUGUGGUUAGACUGCC [C15U G19U G22C C37U], the self-cleavage was found to be 0.1.

As to GGCAGAGCUCAACAAAGCGUGGCGAAGUGGCUGUGGCUAGACUAUC [C15A A24G G44A C45U], the self-cleavage is 0.

For CGCAGAGCUCAUCACAGCGUGGAAAAGUGGCUGUGGCUAGACUGCC [G1C A12U C23A], the self-cleavage is 0.06.

In the case of GGCAUAUCUCAACACAGCGUGGCAAAGUGACUGUGCCUAGACUGCC [G5U G7U G30A G36C], the self-cleavage was found to be 0.06.

Consider GGCACAGAUCAACUCAGCGUGGCAAAGUGGCUGUGGCUAGACUGCC [G5C C8A A14U], for which the self-cleavage amounted to 0.03.

With GGCAGAGGACAACACAGCGUGGUAAAGUGGCUGUGGCUAAACGGCC [C8G U9A C23U G40A U43G], the self-cleavage was 0.38.

For the variant GGCUGCGCUCAACACAGCGUGGCAAAGUGGCUGUGGGUAGACUGCC [A4U A6C C37G], the self-cleavage is 0.02.

With GGCACUGCUCAAAAAAGCGUGGCAAAGUGGCUGUGGCUAGACUGCC [G5C A6U C13A C15A], the self-cleavage turned out to be 0.1.

As for GGCAGAGCUCAACACAGCGUGUCAAAAUGGCUGUGGCUAGACUGCG [G22U G27A C46G], the self-cleavage was found to be 0.97.

As to GCCAGACUUCAAAACAUCAUGGCAGAGUGGCUGUGGCUAGACAGCC [G2C G7C C8U C13A G17U G19A A25G U43A], the self-cleavage was 0.02.

For the variant GGCAGGGCUCAAAACAGCGUCACAAAGUGGCUGUGGCUAGACUGCC [A6G C13A G21C G22A], the self-cleavage came to 0.05.

Turning to GGCAGAGCUCAAGACAGCGUGGCACACUAGCUGUGGCUAGACUGCC [C13G A25C G27C G29A], the self-cleavage worked out at 0.11.

With GGCAGAGCUCCGCACAGCAUGGCAAAGAUGCUGUGGCUAGACUGCC [A11C A12G G19A U28A G29U], the self-cleavage was 0.

As to GGCAGAGCUAAACACAGUGUGUCAAAGUGGCUGUGGCUAGACUGCA [C10A C18U G22U C46A], the self-cleavage stood at 0.09.

Turning to GGCAGAGCUGAACACAGCGUGGCAAAGUGGCUGUGUCUAGGCUGCC [C10G G36U A41G], the self-cleavage is 0.

Take GGCAGAGCUCAACACAGCGUGGCAAAGUGGCUCUGGUUAAACUGCC [G33C C37U G40A]: the self-cleavage was 0.02.

As for GACAGAGCUCAACACAGCGUGGCAAAGGGGCUGUGGCUAGGCUUCC [G2A U28G A41G G44U], the self-cleavage amounted to 0.19.

Take GGCAGAGCUGAACACAGCCUGGCAAAGUGGCUGUGGCUAAACUGCC [C10G G19C G40A]: the self-cleavage was determined as 0.01.

With GGCAGGGCGCAACACAGCGUAACGAAGUGGCUGUGGCUAGACUGCC [A6G U9G G21A G22A A24G], the self-cleavage came out at 0.06.

As for CGCAGAGCUCAAUACAGCGUGGCAAAGUGGCUGUGGCUAGGCUGCC [G1C C13U A41G], the self-cleavage is 0.01.

Regarding GGCAGAGGUCACCACAGCGUGGGAAAGUGGCUGUGGCUAGACAGCC [C8G A12C C23G U43A], the self-cleavage was 0.

For GGCAGAGAUCAACACAGCGGGGCAAAGUGGCUGUGGCUACACUACC [C8A U20G G40C G44A], the self-cleavage was determined as 0.09.

In the case of GGCAGAGGUCAACACAGCGUGGCAAAGUGGCUGUGGCAAGAAUGCC [C8G U38A C42A], the self-cleavage is 0.08.

Take GGCAGAGCUCAACACAGCGGUGCAAAGUGGCUGUGGCUAGACUGGC [U20G G21U C45G]: the self-cleavage was determined as 1.27.

Take GGCAGAGCUCAACACAGUGUGGCAAAGUGGAGGUGGCUAGACUGCC [C18U C31A U32G]: the self-cleavage amounted to 0.03.

Turning to GGCAGGGCUCAACACAUUGUGGCAAAGUGGCUGUGGCUAGACUGCC [A6G G17U C18U], the self-cleavage worked out at 0.02.

Regarding GGCAGAGCUCAACCCAGCGUUGCAAGGUGGCUGUGGCUAGGCUGCC [A14C G21U A26G A41G], the self-cleavage worked out at 0.03.

As to GGCUUAGCUAAACACAGCGUGGGAAAGUGACUGUGGCUAGACUGCC [A4U G5U C10A C23G G30A], the self-cleavage turned out to be 0.01.

As to GGCAGAACUCAACACAGAUUGGCAAAGUGGUUGUGUCUAGACUGCC [G7A C18A G19U C31U G36U], the self-cleavage is 0.05.

On to GGCAGAGCUCAACACAGCGUGGUAACGUUGCUGUGGCUAGACUGCC [C23U A26C G29U], for which the self-cleavage is 0.75.

For the variant GCCAUAGCUCAACACAGCGUGGCAAAGUGGCGGUGGCUAGACUGCC [G2C G5U U32G], the self-cleavage was found to be 0.04.

For the variant GGCAGAGCUCAACACCGCGUAGUAAAGUGGCUGUGGCUAGACUGAC [A16C G21A C23U C45A], the self-cleavage stood at 0.06.

Regarding GGCAGAGCUCAGCACAGCGUAGCAAAGUGGCGGUGGCUAGACUGCC [A12G G21A U32G], the self-cleavage is 0.01.

As to GGCAGAGCUCAACACAGCGUGGCAUUGUGGCUGAGGCUAUAGUGCC [A25U A26U U34A G40U C42G], the self-cleavage is 0.02.

For the variant GGCAGAGCCCACCACAGCGUGGCAAAGCGGCUGUGGCUAGAGUGCC [U9C A12C U28C C42G], the self-cleavage worked out at 0.01.

As for GGCAGAGCUCAACACAGCGUGGCAAUGUGGCUGUUGCUGGACUGCC [A26U G35U A39G], the self-cleavage came out at 0.07.

In the case of GGCAGAGAUCAACAAAGCGUGGCAAAGCGUCUGUUGAUAGACUGCC [C8A C15A U28C G30U G35U C37A], the self-cleavage was determined as 0.

As for GUCAGAGCUAAACACAGCGUGGCAAAGUGGCUGUGGCUAAACUGGC [G2U C10A G40A C45G], the self-cleavage was found to be 0.02.

As to GGCAGAUCUCAACACAGCGUGGCAAGGUGGCUGCGGCUAGACUGAC [G7U A26G U34C C45A], the self-cleavage stood at 0.07.

For GGAAGAGCUCAACACAGCUUGGGAAAGUGGCUGUGGCUAGACUCCC [C3A G19U C23G G44C], the self-cleavage was 0.84.

For the variant GGGAAAGCUCAACACAGCGUGGCAAAGUGGCUGGAGCUAUACUGCC [C3G G5A U34G G35A G40U], the self-cleavage was found to be 0.08.

In the case of GGCAGAGCUCAAAACAGCGUGGCAAAGUGACUGUGGCUAGACUUCC [C13A G30A G44U], the self-cleavage came to 0.06.

With GGGAGAGCUCAUCACAGCGUUGCAAAGUGCCUGUGGCUAGACUGCC [C3G A12U G21U G30C], the self-cleavage was determined as 0.18.

The values are drawn from the RNAGym collection of RNA variant scans (doi:10.7554/elife.90254).
